Assay results: the supplement of paper PMC11417369
± gives the standard deviation of the averaged measurements. This is one part of the list.

Each sequence was assayed on PfAP2-G AP2 domain (GST-tagged) (assay: gcPBM binding intensity (ln(normalized median fluorescence intensity)); higher = stronger DNA binding).
In short: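 GST-tagged P. falciparum DNA-binding domains, expressed in E. coli (about 25 μg on average), were applied for 1 h to an Agilent 4 × 180k array of primer-extended double-stranded 36-bp intergenic genomic probes plus negative controls. The binding buffer was 1× PBS with 1% milk, 0.2 mg/ml BSA, 0.5% salmon testes DNA and 0.03% Triton X-100. Bound protein was detected with Alexa488 anti-GST antibody and scanned at 488 nm. Binding intensity is the highest Masliner-normalised natural-log median intensity across replicate spots of either probe orientation.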
“ATATATTTTTAAAAAAATTAAGAATTTTACATCTCC [CACACA_negctrl_site1450]” was tested, and the “gcPBM binding intensity (ln)” value was 9.81 ± 0.014.
With “TATAAAAAAAACGAAAAAAAAAAAAAAAATACAGGA [TGCATGCA_negctrl_site585]” the “gcPBM binding intensity (ln)” value was 10 ± 0.26.
With “AAAAAAAAAAGACACACACACAAAAAAAGATATATA [CACACA_site6645]” the “gcPBM binding intensity (ln)” value was 9.975 ± 0.007.
For “TAGAATAAGATAGATATACACACCATTATAAATATA [CACACA_site2500]”, the “gcPBM binding intensity (ln)” value was 9.82 ± 0.13.
With “TTACAAAATAAGAGGCACAAACACAAAAAAAAATAA [CACACA_negctrl_site574]” the “gcPBM binding intensity (ln)” value was 10.2 ± 0.15.
“TTGTTCAAACAAAAAATAAAATAATTGAAAATAAAA [CACACA_negctrl_site812]” was tested, and the “gcPBM binding intensity (ln)” value was 9.745 ± 0.092.
“GTAACTTTATTATACTGTACTATTATATAAGCACAC [XGTACX_site2859]” was tested, and the “gcPBM binding intensity (ln)” value was 11.4 ± 0.91.
For “ATAAAAATATTACGCACACACAAACTTATTCATTAT [CACACA_site1969]”, the “gcPBM binding intensity (ln)” value was 10.3 ± 0.2.
In the case of “TGTAAAAAATTTAACACACACATATATATATATATA [CACACA_site2585]”, the “gcPBM binding intensity (ln)” value is reported as 9.86 ± 0.071.
In the case of “ATTACAATATATACGTGTACATATTACCACCGCTAC [XGTACX_site2308]”, the “gcPBM binding intensity (ln)” value is reported as 11.4 ± 0.67.
For “TGGGTAAACAAACACACACACATATATATATATATA [CACACA_site1992]”, the “gcPBM binding intensity (ln)” value was 10.1 ± 0.25.
“AAATATATATATAGTTGTACATATATCGTATATATT [XGTACX_site7867]” was tested, and the “gcPBM binding intensity (ln)” value was 11.2 ± 0.78.
“TTCACTAATAAATACGCACACATATACAGATATATA [CACACA_site4887]” was tested, and the “gcPBM binding intensity (ln)” value was 10.4 ± 0.4.
For “GGATGCACACAAAAGGGTACATAAGAAAAAAACAGG [XGTACX_site8570]”, the “gcPBM binding intensity (ln)” value was 11.5 ± 0.6.
With “CACGCACAGATATATACACACTTTTATTTAAATAAC [CACACA_site6852]” the “gcPBM binding intensity (ln)” value was 10.3 ± 0.18.
For “AAAAATAAAATGGACACACACGTTCAAATTTAGATT [CACACA_site5186]”, the “gcPBM binding intensity (ln)” value was 10.7 ± 0.43.
In the case of “AAAAAAAAATATATAAACACACATATTTATATACAC [GTGCAC_negctrl_site545]”, the “gcPBM binding intensity (ln)” value is reported as 9.65 ± 0.15.
In the case of “TTATTTAAATAATATGTACACACATTTAAAAAATTA [CACACA_site8912]”, the “gcPBM binding intensity (ln)” value is reported as 11.6 ± 0.95.
In the case of “ATGAGTGTAATAATATGTACATAACCTACATAATTT [XGTACX_site852]”, the “gcPBM binding intensity (ln)” value is reported as 11.1 ± 0.52.
In the case of “AGTTGTTACGAACATACACACGAACATAGACACGGA [CACACA_site8102]”, the “gcPBM binding intensity (ln)” value is reported as 10.4 ± 0.29.
“ACACGCACATATATATAAATATATATATATATAAAT [CACACA_negctrl_site1781]” was tested, and the “gcPBM binding intensity (ln)” value was 9.87 ± 0.14.
For “AATAAAAATATTTTTACATGCAAATGTTATATATTT [TGCATGCA_site1056]”, the “gcPBM binding intensity (ln)” value was 9.74 ± 0.22.
For “GCACACATATAATAATGTACATATATATATTTAAAA [XGTACX_site4561]”, the “gcPBM binding intensity (ln)” value was 11.1 ± 0.66.
For “TATTGATTATTTGAATGTACTTATTATATTAAATAT [XGTACX_site1304]”, the “gcPBM binding intensity (ln)” value was 11.2 ± 0.9.
For “TAATATGATCTTAATAGTACTTTATTAATAATAACC [XGTACX_site1953]”, the “gcPBM binding intensity (ln)” value was 10.8 ± 0.57.
With “TATATATGTTTATGTAGTACTATATATCCCTTTCTT [XGTACX_site7049]” the “gcPBM binding intensity (ln)” value was 11.2 ± 0.71.
With “AAAAAAAATTATTATGAACACACATTTATTATATTC [CACACA_site8443]” the “gcPBM binding intensity (ln)” value was 9.66 ± 0.18.
With “ATTCTACACAGACATACACACATATATATATATATA [CACACA_site5826]” the “gcPBM binding intensity (ln)” value was 10.3 ± 0.25.
With “AATAACCACAGACACACACACATATAAATATAAATA [CACACA_site7631]” the “gcPBM binding intensity (ln)” value was 10.2 ± 0.28.
For “TCTTTTAACACATGTGATATTATTTAATAACAATAA [CACACA_negctrl_site339]”, the “gcPBM binding intensity (ln)” value was 9.795 ± 0.049.
With “GGTATACACAAGTATACACACATATAAATATAAATA [CACACA_site7511]” the “gcPBM binding intensity (ln)” value was 10.1 ± 0.25.
With “TGTACATATATATATATATATGTTACTGAAATAAAA [CACACA_negctrl_site1658]” the “gcPBM binding intensity (ln)” value was 10.7 ± 0.45.
For “AAGAATAACTTTTATACATGCAGCATAATATATTGT [TGCATGCA_site605]”, the “gcPBM binding intensity (ln)” value was 10.01 ± 0.014.
For “CTTTTATAATTCATATGTACTTATTTTTAACATAGG [XGTACX_site7808]”, the “gcPBM binding intensity (ln)” value was 11.3 ± 0.86.
With “GTGATTAATATATACACACATACATATATATATATA [CACACA_site2817]” the “gcPBM binding intensity (ln)” value was 10.1 ± 0.2.
For “ATATATATGTATACATGTACATATTTTATTATGTGC [XGTACX_site7207]”, the “gcPBM binding intensity (ln)” value was 11.2 ± 0.61.
With “TTTTTAAATTCTTTAATATGTTTTATATATCAAAAT [CACACA_negctrl_site75]” the “gcPBM binding intensity (ln)” value was 9.755 ± 0.049.
For “TCTTATCATTTTAAATCACACACATATATATATATA [CACACA_site8925]”, the “gcPBM binding intensity (ln)” value was 10.2 ± 0.45.
In the case of “TTACAGATATTTATCTGTACATATATTTAAAAATAT [XGTACX_site7431]”, the “gcPBM binding intensity (ln)” value is reported as 11 ± 0.81.
With “TAATTTTTTTAAAAGCGTACATTTAAAAAAAAATAT [XGTACX_site2736]” the “gcPBM binding intensity (ln)” value was 11.4 ± 0.98.
For “AAAAGTAAAAAAAAAAAAAGTAAAAAAAAAAAAAAA [CACACA_negctrl_site389]”, the “gcPBM binding intensity (ln)” value was 9.685 ± 0.092.
For “ATTTATATTTATAAATGTACACATATATATTTCATT [XGTACX_site2723]”, the “gcPBM binding intensity (ln)” value was 11.2 ± 0.63.
In the case of “TCCTATAATTTTTTAATCAAAATATTTTATCCTTTG [CACACA_negctrl_site793]”, the “gcPBM binding intensity (ln)” value is reported as 9.74 ± 0.25.
With “ACTGTAATATTGAAAGTGCATTAAAGTGTATATTAT [GTGCAC_site9970]” the “gcPBM binding intensity (ln)” value was 10.2 ± 0.18.
